Measured values from the antibiotic and cytotoxicity screens of Wong et al. (2023).
The list shows a part of the results.

How the values were obtained:
[1] = test system: HSkMC (human skeletal muscle cells); test: cytotoxicity call (relative viability < 0.9); settings: 10 µM
[2] = test system: HepG2; test: cytotoxicity call (relative viability < 0.9); settings: 10 µM
[3] = test system: S. aureus RN4220; test: growth inhibition call (relative growth <= 0.2); settings: 50 µM

CN1CCN(C(=O)C[C@H]2C=C[C@@H](NC(=O)Nc3ccccc3F)[C@@H](CO)O2)CC1
cytotoxicity call [1]: inactive
cytotoxicity call [2]: inactive
growth inhibition call [3]: inactive

C[C@@H]1CCCCO[C@@H](CN(C)CC2CCCCC2)[C@@H](C)CN([C@H](C)CO)C(=O)c2cc(NC(=O)Nc3cccc4ccccc34)ccc2O1
cytotoxicity call [1]: active
cytotoxicity call [2]: active
growth inhibition call [3]: inactive

O=C(CN1CCOCC1)N[C@H]1CC[C@H](CCNC(=O)C2CCC2)O[C@@H]1CO
cytotoxicity call [1]: inactive
cytotoxicity call [2]: inactive
growth inhibition call [3]: inactive

O=C(NCC1CC1)[C@@H]1[C@@H](CO)[C@@H]2Cn3c(cccc3=O)[C@H]1N2C(=O)c1cccnc1
cytotoxicity call [1]: inactive
cytotoxicity call [2]: inactive
growth inhibition call [3]: inactive

COc1ccc(S(=O)(=O)Nc2ccc3c(c2)CC(=O)N([C@@H](C)CO)C[C@H](C)[C@H](CN(C)Cc2ccc(Oc4ccccc4)cc2)O3)cc1
cytotoxicity call [1]: active
cytotoxicity call [2]: inactive
growth inhibition call [3]: inactive

CS(=O)(=O)Nc1ccc2c(c1)[C@@H]1C[C@@H](CC(=O)NCc3ccc(-c4ccccc4)cc3)O[C@@H](CO)[C@@H]1O2
cytotoxicity call [1]: active
cytotoxicity call [2]: inactive
growth inhibition call [3]: inactive

C[C@@H]1CCCCO[C@H](CN(C)S(=O)(=O)c2ccccc2)[C@H](C)CN([C@@H](C)CO)C(=O)c2cc(NC(=O)Nc3cccc4ccccc34)ccc2O1
cytotoxicity call [1]: inactive
cytotoxicity call [2]: inactive
growth inhibition call [3]: inactive

C[C@@H]1CN([C@@H](C)CO)C(=O)c2cc(NC(=O)Nc3cccc4ccccc34)ccc2O[C@@H]1CN(C)C(=O)Nc1ccc2c(c1)OCO2
cytotoxicity call [1]: inactive
cytotoxicity call [2]: inactive
growth inhibition call [3]: inactive

C[C@@H]1CN([C@@H](C)CO)C(=O)c2cc(NC(=O)Nc3ccc(F)cc3)ccc2O[C@@H](C)CCCCO[C@H]1CN(C)Cc1ccccc1
cytotoxicity call [1]: inactive
cytotoxicity call [2]: active
growth inhibition call [3]: inactive

CO[C@H]1CN(C)C(=O)c2ccc(NC(=O)CC(F)(F)F)cc2OC[C@@H](C)N(S(=O)(=O)c2cn(C)cn2)C[C@@H]1C
cytotoxicity call [1]: inactive
cytotoxicity call [2]: inactive
growth inhibition call [3]: inactive
